# Measured values: PMC10726135
# The list shows a part of the results. At the low end of the ranking the order means little. The protein was read in a cell extract, so binding may be indirect.
# Biological target: T1, HNF4alpha2 (COS-7 nuclear extract) (UniProt P41235)
# T1 sequence: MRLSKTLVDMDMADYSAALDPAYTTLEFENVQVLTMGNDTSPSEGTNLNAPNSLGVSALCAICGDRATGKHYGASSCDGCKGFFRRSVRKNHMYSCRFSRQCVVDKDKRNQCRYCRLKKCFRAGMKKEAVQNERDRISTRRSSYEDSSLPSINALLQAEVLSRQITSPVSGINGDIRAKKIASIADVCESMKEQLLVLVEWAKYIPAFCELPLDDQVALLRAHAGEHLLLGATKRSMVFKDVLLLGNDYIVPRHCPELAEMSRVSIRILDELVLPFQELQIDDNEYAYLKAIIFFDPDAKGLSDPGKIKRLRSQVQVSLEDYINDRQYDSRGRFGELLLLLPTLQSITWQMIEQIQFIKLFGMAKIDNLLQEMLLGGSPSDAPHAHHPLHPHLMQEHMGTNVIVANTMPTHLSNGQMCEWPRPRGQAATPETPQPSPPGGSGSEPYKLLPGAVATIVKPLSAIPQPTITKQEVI
# Assay: protein-binding microarray
# Conditions: COS-7 nuclear extract on double-stranded Agilent 4x180k PBM; binding buffer, salt, pH and temperature not given; high values mean tight binding; double strand, one strand shown; sequences stand for … in …GCCTAGGGAGATTAGAGTATCGGTCGA
row,Sequence,binding signal (log2 normalized intensity)
1,GAGGGCTGCTTATCTAGGATGAGAATCCAC,0.204
2,CAACCACACCAACATGGACTTTGTCACAAG,5.88
3,CTGATCTTAAGTTGTACCTGACTAAAACCT,-0.645
4,GTGAGAAGGGGTAGTGATCCTGGTAGGGGG,-0.96
5,TGCAGCAGCATCCAGCCCCAGGCTGAGCGT,-1.24
6,GATACAGCATGGCCCAGGGACTCAGGCACA,-1.04
7,GCCTGGGAAAATGTTGATTACGTGTTCCCA,0.412
8,TCTGCAAACACCCCTCCCCCACACAGACAA,5.01
9,ATCTTGCCTGTTGTATGGTTTTGTGCTAGA,1.44
10,AACACTTTCTAAGGACACAACAGAATGTGA,-0.05
11,TGAACACTTCTTTGTTACTTACAGACTTTC,1.27
12,GGAGTTTCAGAGGACTGCCCAGCTGCATCC,-1.05
13,GCGGGCGGACTCCGAGCCATTTTGGAGCCG,-1.08
14,TCTTCAAGAGGCCCATCTCACACATAATGA,-0.564
15,CCCCAACAAAGCTCTGCATCCTTCCCTAAG,-1.05
16,GCAGACTCCCTAGAAGAGTGAACCTAGTGG,-0.548
17,TTTGACAAAAAATGATGAATTTTCATCCCT,-1.14
18,TATAAAGGTCAACTGCCCTCTCAAATTACA,1.51
19,ACTAGCCAAACAGGTTGGGGAGGTTTGGCT,-0.923
20,GTTTGATAGAGAAGTTTTGAAACCCTGTTC,0.439
21,GAGTGATCCTGAAAACAAATAGAGCAGACT,-1.23
22,GTGACTAAATGAGAAGAAATGATGGGTGCC,-0.768
23,CTTGTGATTACACTGGGCTCACCTGAATGA,-1.08
24,GAAACTAAAGTCTGTTTGATTCCATGCTGA,-1.11

row,Sequence,binding signal (log2 normalized intensity)
1,ACATAACAGGTTTGTAACTTCTTGGCCTGC,0.492
2,GACCCAGGAGCCTTCCGGAGGCTCTGCTGA,-1.12
3,CCTCCCCTAGACTTACTATTATGCCTTGAC,0.618
4,GCTGCAGGCATGAGAGGTGCTGCATGGGCT,-0.94
5,TCCTTAGATAAAAAGCTTTTCTTCCCCCCT,4.12
6,GGAGGGAGGAGCACAGAAGGAGAGAGAGGG,-1.05
7,ATTTGCGATAATAGAGATTGCTTAATGCAA,-0.868
8,ACATTGCATTCCACCCTGGCAGAGGAAAAA,-1.09
9,TAATTGCCCTTTGCCCTTTGCCCAACCCTC,7.02
10,TTCCCCTTTGACTTAGGATCAGTAGCATTA,0.918
11,AGAACTGGGCGAGCCCTCTGATCTGACCCC,5.8
12,GCTTGAAAAGAAGAAAAAACAGGTGTTCTT,0.477
13,TTGTCCCTTTCAAGGGCTTACAACTCTAAG,-1.05
14,GGGTGTCTGCTGTTCTTGCCTGATAGCATC,1.03
15,CTGGCTGAAGACCTGTACAGGGACTGTGTC,0.956
16,CGTAATGTGTCCCCACATCTGTGAAAACGA,1.69
17,AATAAGGATTATCACTGAATCGAGGCTATT,-1.08
18,TGCCAAGGAGCCTCTGCAACCTTTGCTCTC,5.9
19,CACAGCACAAGATAAGATAGGAATTTGAGT,-1.1
20,CCACAGAGTTGCTGTGACAGACAGGTGAGA,-0.892
21,TATTCCTTGTCCTTGACCCTTCCTCCCATT,3.61
22,TCAGGGTAAATCCCGTCCCTGCCAAAGGTC,4.8
23,GGTGATTTCAGACTATTTTATTTTCCCCCT,4.06
24,AGATTAGATATATCTGTACTCAAACACTGC,-0.305

row,Sequence,binding signal (log2 normalized intensity)
1,TTTGAAGCATGGAGAAAATTCTGGACCTTC,2.31
2,TTGGTGGGCTTTTGTCACATTCCAGACTTT,2.73
3,CCCCTGCCCCCAGGTAGAGAGCAATCATGC,2.4
4,TTGGTATTACATTACAACCAAAGGAATTTA,-1.11
5,TGCTCCCTCCTTCAGTGCTCTGTTGAGTCA,0.377
6,TCTGTCCCATGGTGTACAAGGAGTCTCCAC,0.797
7,GGTTCAGAGACCTGGCGGATAGATAGAATC,-1.1
8,ACGCCGTCTCAAAAAAAAAAAAAAGGCAGT,-1.14
9,AGTCCAGAAATAGCATCACGAAAGGCAACA,-0.686
10,TATGTTTGTGCTGGTTACTAAACACTTACA,-1.12
11,CGGCGGCCCAGTCAAACCCCGCGCTCCAGG,-1.04
12,ACAAATGTCAGACAAACAGACTTCACACTA,-0.99
13,AGATGGTCTCAGGTGGAGATAAGGAATTTG,-0.171
14,ATACTTAGGATTTTTGTGCCTCTTTGGTGA,1.13
15,GTTTCCCTCTCTCTCTCTCTCTCACACACA,1.31
16,GGCCCCAGTGCACGTGCATGAGGCCCCTTG,2.18
17,TCTATCAGTACAAATAAACCTTTGACCAAT,4.32
18,TCTCTCCCACTTATCTCAATCCTGCTCAAT,0.55
19,GGGTAGATAAGGATGGATCAAAGGAAACTG,-1.2
20,TAGCTACTGCAATAAAGTGGGTTGAAGTTC,1.55
21,TAATGGAATTGACATTCAATTGCAAGCTTA,-1.13
22,GGAGGGAACAGCAAGACTTTGGCCCTGCAG,-0.791
23,CAAACATTTGGAAAACATCATTCCGTGACT,-1.08
24,GCCTGGCTGGCCTGGCAAATCTCTAAATTC,-1.19
